Results published in PubChem BioAssay (NCATS).
This list was built around the results that the source calls inconclusive (neither active nor inactive); the mix of calls is not that of the screen. For part of these data: A potency beside an inconclusive call is a rough fit, not a confirmed value. Calls of active or inactive are those of the source. Unless noted, the call rests on the fitted dose curve; in most records, active means well fitted curve in the direction sought with a large enough effect; inconclusive means small, poorly fitted or top-dose-only effect, or another doubt; inactive means no such curve, though single readings can be large; an effect the other way counts as inactive or inconclusive.

Columns and labels:
[1] = Cell Viability - Hek293 (AID 427;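 active means compounds whose dose-response curve shows a full or clear partial loss of cell viability, called from curve shape rather than a numeric limit; inconclusive means weak partial curves or an effect only at the top dose; inactive means no dose-dependent loss of viability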;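 further: potency means the concentration at half of the fitted maximal effect; cells exposed to compound for 40 hours at 37 °C before reading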); conditions: qHTS
Outline: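 HEK293 cells in complete medium were exposed to compound for 40 hr at 37 °C, then cellular ATP was read by CellTiter-Glo luminescence. Data were normalized to DMSO (basal) and 100 uM tamoxifen (100% inhibition), and AC50 came from Hill fits.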

[2] = biological target: Mitogen-activated protein kinase 10 (Mus musculus) (UniProt Q61831); test: JNK3 AlphaScreen Assay (AID 530; active means well fitted curve in either direction with a large enough effect, not every such curve was filed as active; inconclusive means small, poorly fitted or top-dose-only effect, or another doubt;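 further: kinase came from lysate of stimulated human HepG2 cells; signal reports phosphorylation of biotinylated GST-cJun 1-79 at Ser73 with 10 µM ATP; potency means the concentration at half of the fitted maximal effect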); conditions: JNK3 lysate, c-Jun phosphorylation; activity change, negative = inhibition: at 57.1 µM (top of the series)
Outline: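 Inhibitors reduce antibody binding to phosphorylated biotin-cJun, lowering AlphaScreen luminescence. Lysates from HepG2 cells pre-activated by IL-1beta plus TNF-alpha supplied JNK3; compounds were titrated.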

[3] = Cell Viability - H-4-II-E (AID 543); further: potency means the concentration at half of the fitted maximal effect; nearly all actives have a fitted effect of over 35% in size
Outline: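 Rat hepatoma H-4-II-E cells, 1500 per well, treated 40 h at 37 °C in complete medium. Cellular ATP read by CellTiter-Glo luminescence; AC50 from Hill fits of concentration-response.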

[4] = Cell Viability - Renal Proximal Tubule (AID 545); conditions: renal proximal tubule cells viability; activity change, negative = cytotoxicity: at 91.7 µM (top of the series) unless noted; further: nearly all actives have a fitted effect of over 40% in size
Outline: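 Luminescent ATP signal (CellTiter-Glo) served as the viability read-out after 40 hr compound exposure of freshly isolated rat proximal tubule cells at 37 °C. Concentration-dependent ATP loss was fitted with the Hill equation to give AC50.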

[5] = Cellular Toxicity (caspase-3) H-4-II-E (AID 663); conditions: H-4-II-E rat hepatoma; Potency: caspase-3 activation; caspase-3 activation: at 92.2 µM (top of the series), scaled: DMSO 0%, 100 µM tamoxifen 100%;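 further: cells exposed to compound for 16 hr before readout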
Outline: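 Luminescence from caspase-cleaved aminoluciferin substrate, read 20 min after reagent addition, reports caspase 3/7 activation in rat H-4-II-E cells after 16 hr compound exposure. Normalized to DMSO (basal) and 100 uM tamoxifen (100%); AC50 from Hill fits.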

[6] = Cellular Toxicity (caspase-3) NIH 3T3 (AID 666); further: potency means the concentration at half of the fitted maximal effect
Outline: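 Mouse NIH 3T3 fibroblasts (1000/well) treated 16 h at 37 C; caspase-3/7 activity measured by Caspase-Glo 3/7 luminescence after 20 min. Normalized to DMSO and 100 uM tamoxifen; AC50 from Hill fits.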

[7] = Cellular Toxicity (caspase-3) Renal Proximal Tubule (AID 667); conditions: renal proximal tubule cells; at 91.7 µM (top of the series) unless noted;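 further: cells exposed to compound for 16 hours at 37 °C before detection; 0% = DMSO basal and 100% = 10 µM staurosporine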
Outline: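 AC50 derived by standard Hill fit of concentration-response data, normalized between DMSO basal and 10 uM staurosporine as 100% stimulation. Cells: primary rat kidney proximal tubule, 16 h treatment at 37 °C.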

[8] = Cell Viability - LYMP2-001 (AID 921); conditions: LYMP2-001 lymphoblastoid cell viability; activity change, negative = cytotoxic: at 92.2 µM (top of the series); further: potency means the concentration at half of the fitted maximal effect; nearly all actives have a fitted effect of over 70% in size
Outline: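 Steps: seed 2500 lymphoblastoid cells/well; 5 hr, 37 C; add compound; 24 hr, 37 C; CellTiter-Glo reagent, 30 min room temperature; read luminescence. Concentration-response modeled by Hill equation for AC50.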

[9] = MultiTox-Fluor Cytotoxicity Assay - LYMP1-001 - Dead Cells (AID 946); conditions: LYMP1-001 lymphoblastoid cells, dead-cell protease fluorescence; cytotoxicity (dead cells): at 92.2 µM (top of the series); further: potency means the concentration at half of the fitted maximal effect
Outline: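 LYMP1-001 lymphoblastoid cells (2500/well) treated 16 h at 37 C. Dead-cell protease cleavage of bis-AAF-R110 read at Ex/Em 485/520. Normalized to DMSO and 15 uM tetraoctylammonium bromide; AC50 from Hill fits.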

[10] = MultiTox-Fluor Cytotoxicity Assay - LYMP1-001 - Live Cells (AID 947); further: potency means the concentration at half of the fitted maximal effect
[11] = MultiTox-Fluor Cytotoxicity Assay - LYMP1-002 - Live Cells (AID 955);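 further: potency means the concentration at half of the fitted maximal effect; cells exposed to compound for 16 hours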
Outline: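 Human lymphoblastoid LYMP1-002 cells, 2500/well, treated 16 h at 37 C in complete medium. Live-cell protease activity via GF-AFC fluorescence (Ex/Em 405/510) after 60 min reagent incubation; AC50 from Hill fits.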

[12] = MultiTox-Fluor Cytotoxicity Assay - LYMP1-002 - Dead Cells (AID 960); conditions: LYMP1-002 lymphoblastoid cells, dead-cell protease fluorescence; cytotoxicity (dead cells): at 46.1 µM (top of the series); further: potency means the concentration at half of the fitted maximal effect; nearly all actives have a fitted effect of over 60% in size
Outline: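 Human lymphoblastoid LYMP1-002 cells, 2500/well, treated 16 h at 37 C; dead-cell protease cleavage of bis-AAF-R110 read by fluorescence (485/520); normalized to DMSO and 15 uM tetraoctylammonium bromide; AC50 from Hill fit.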

[13] = Cell Viability - LYMP1-003 - Assay at 40 hr (AID 964); further: potency means the concentration at half of the fitted maximal effect; nearly all actives have a fitted effect of over 60% in size
Outline: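 LYMP1-003 human lymphoblastoid cells, 2500/well, preincubated 5 h at 37 C, then treated with compound for 40 h at 37 C. Intracellular ATP read by CellTiter-Glo luminescence after 30 min at room temperature; AC50 from Hill-equation fits.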

[14] = Cell Viability - LYMP2-004 (AID 966); conditions: LYMP2-004 lymphoblastoid cell viability, qHTS; activity change, negative = cytotoxicity: at 92.2 µM (top of the series); further: potency means the concentration at half of the fitted maximal effect; nearly all actives have a fitted effect of over 65% in size
Outline: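 Lymphoblastoid LYMP2-004 cells, 2500 per well, were preincubated for 5 hr and then treated with compound for 24 h at 37 C in complete medium. Viability was read as cellular ATP by CellTiter-Glo luminescence, and AC50 values were taken from Hill fits to concentration-response data.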

[15] = Cell Viability - LYMP2-005 (AID 967); further: potency means the concentration at half of the fitted maximal effect
Outline: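 Acute cytotoxicity is scored as a concentration-dependent drop in intracellular ATP in human lymphoblastoid LYMP2-005 cells after 24 h compound treatment. ATP is quantified by luciferase luminescence, and AC50 is derived by Hill-equation modelling.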

[16] = Cell Viability - LYMP2-009 (AID 968); further: potency means the concentration at half of the fitted maximal effect; nearly all actives have a fitted effect of over 55% in size
[17] = Cell Viability - LYMP2-019 (AID 973); further: potency means the concentration at half of the fitted maximal effect; nearly all actives have a fitted effect of over 55% in size
Outline: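 Human lymphoblastoid LYMP2-019 cells (2500/well) preincubated 5 h at 37 C, then treated 24 h at 37 C in complete medium. Viability by CellTiter-Glo ATP luminescence after 30 min at room temperature; AC50 from Hill fits.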

[18] = Cell Viability - LYMP2-025 (AID 976); conditions: LYMP2-025 lymphoblastoid cell viability; activity change, negative = cytotoxicity: at 92.2 µM (top of the series); further: potency means the concentration at half of the fitted maximal effect
Outline: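 Human lymphoblastoid LYMP2-025 cells, 2500/well, exposed 24 h at 37 C in complete medium in 1536-well qHTS. Viability as cellular ATP by CellTiter-Glo luminescence; AC50 from Hill fits of concentration-response data.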

[19] = Cell Viability - LYMP2-012 (AID 982);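 further: cellular ATP by luciferase luminescence where a drop means cytotoxicity; potency means the concentration at half of the fitted maximal effect; cells exposed to compound for one day before reading; nearly all actives have a fitted effect of over 55% in size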
[20] = Cell Viability - LYMP2-016 (AID 984); conditions: LYMP2-016 lymphoblastoid cell viability, qHTS; activity change, negative = cytotoxicity: at 92.2 µM (top of the series); further: potency means the concentration at half of the fitted maximal effect; nearly all actives have a fitted effect of over 55% in size
Outline: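 Cells were seeded at 2500 per well and rested 5 hr before a 24 hr compound exposure at 37 C. Viability was then gauged as cellular ATP by luciferase luminescence, with AC50 values fitted to the Hill equation.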

[21] = Cell Viability - LYMP2-026 (AID 989); conditions: LYMP2-026 lymphoblastoid cell viability, qHTS; activity change, negative = cytotoxic: at 92.2 µM (top of the series); further: potency means the concentration at half of the fitted maximal effect; nearly all actives have a fitted effect of over 50% in size
Outline: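 Human lymphoblastoid LYMP2-026 cells, 2500/well, exposed to compound 24 h at 37 C in complete medium. Viability as intracellular ATP by CellTiter-Glo luminescence; AC50 from Hill fits of qHTS concentration-response.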
Tags describe the fitted curve by direction and shape.

CC(C)CC(C)Nc1ccc(Nc2ccccc2)cc1 (stereo unspecified)
active: Potency [3] 50.1 µM | activity change, negative = cytotoxicity [4] -106% | Potency [8] 15.8 µM | Potency [13] 31.6 µM | Potency [14] 25.1 µM | Potency [15] 31.6 µM | Potency [17] 39.8 µM | Potency [19] 39.8 µM | Potency [20] 50.1 µM
inconclusive: Potency [1] 106 µM [partial curve] | Potency [2] 15.8 µM [inhibitor, partial curve] | caspase-3 activation [5] 40.6% | Potency [6] 31.6 µM [rising, single point] | caspase-3 activation [7] 54.8% | Potency [9] 79.4 µM [cytotoxic, partial curve, poor fit] | Potency [10] 50.1 µM [cytotoxic, partial curve, poor fit] | Potency [11] 31.6 µM [cytotoxic, single point] | Potency [12] 31.6 µM [cytotoxic, partial curve, poor fit] | Potency [16] 50.1 µM [cytotoxic, partial curve, poor fit] | Potency [18] 79.4 µM [cytotoxic, single point] | Potency [21] 50.1 µM [cytotoxic, partial curve, poor fit]
